Measured values from article PMC4336329 (PLoS ONE, 2015).
Hit rate of the full screen: of about 310,000 compounds, about 14,000 (4.5%) showed an effect of 50% or more. Effects have a minus sign here. The list shows a part of the results.

Target: human ether-à-go-go-related gene (hERG) potassium channel (human, UniProt Q12809)
Experiment: primary screen, population patch clamp on CHO cells stably expressing hERG
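Also: peak tail current of the secondary pulse compared with the same well before compound.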

human ether-à-go-go-related gene (hERG) potassium channel, sequence (Q12809 whole entry, looked up): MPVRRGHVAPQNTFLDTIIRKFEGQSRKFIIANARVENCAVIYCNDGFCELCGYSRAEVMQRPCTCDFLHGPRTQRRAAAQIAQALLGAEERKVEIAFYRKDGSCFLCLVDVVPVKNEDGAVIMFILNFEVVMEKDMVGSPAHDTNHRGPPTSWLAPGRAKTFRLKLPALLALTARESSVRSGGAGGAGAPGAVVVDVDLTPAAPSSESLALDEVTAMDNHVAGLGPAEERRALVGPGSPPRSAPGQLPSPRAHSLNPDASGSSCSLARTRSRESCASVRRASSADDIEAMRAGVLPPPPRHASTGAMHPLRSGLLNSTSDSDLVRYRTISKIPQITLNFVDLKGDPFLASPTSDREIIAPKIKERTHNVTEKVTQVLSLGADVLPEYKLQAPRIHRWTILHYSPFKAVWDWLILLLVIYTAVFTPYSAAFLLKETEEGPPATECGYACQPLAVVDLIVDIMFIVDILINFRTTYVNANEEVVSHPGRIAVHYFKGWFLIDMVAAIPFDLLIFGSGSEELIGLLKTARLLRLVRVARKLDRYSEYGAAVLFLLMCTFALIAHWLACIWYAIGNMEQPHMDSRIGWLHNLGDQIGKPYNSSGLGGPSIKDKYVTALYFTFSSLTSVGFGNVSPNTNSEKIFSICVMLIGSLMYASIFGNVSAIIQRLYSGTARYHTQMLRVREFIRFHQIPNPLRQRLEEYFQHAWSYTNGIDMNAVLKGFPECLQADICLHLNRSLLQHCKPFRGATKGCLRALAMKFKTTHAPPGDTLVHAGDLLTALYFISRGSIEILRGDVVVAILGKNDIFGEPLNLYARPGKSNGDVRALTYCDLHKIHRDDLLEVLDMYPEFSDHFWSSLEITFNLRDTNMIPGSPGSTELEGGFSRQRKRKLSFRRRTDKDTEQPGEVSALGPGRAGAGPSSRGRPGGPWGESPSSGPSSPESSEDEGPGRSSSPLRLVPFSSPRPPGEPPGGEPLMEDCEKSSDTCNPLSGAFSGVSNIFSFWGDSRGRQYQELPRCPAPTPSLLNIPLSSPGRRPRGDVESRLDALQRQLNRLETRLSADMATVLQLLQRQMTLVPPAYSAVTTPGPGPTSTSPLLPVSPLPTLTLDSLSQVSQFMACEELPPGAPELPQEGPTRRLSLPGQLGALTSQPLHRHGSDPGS

Row | Structure (SMILES) | hERG current change (%, negative = inhibition) at 10uM
1 | COc1ccc(/C=C/C(=O)c2cc(Br)ccc2O)cc1OC | 20.3%
2 | O=C1CS/C(=C\S(=O)(=O)c2ccc(Cl)cc2)N1 | -0.909%
3 | Cc1cc(C(=O)CSc2nnc(N)s2)c(C)n1Cc1ccco1 | 23.7%
4 | CCOC(=O)c1cc(-c2ccccc2)sc1NC(=O)CSc1nnnn1C | -16.3%
5 | CCN(Cc1ccccc1)C(=O)c1ccc(Cl)cc1[N+](=O)[O-] | -4.22%
6 | COc1cc(/C=N\NC(=O)c2ccc(Cn3cc(Br)c([N+](=O)[O-])n3)o2)cc(OC)c1O | -11.9%
7 | O=C(Cn1nc(C(F)F)cc1C(F)F)N/N=C/c1ccc2c(c1)OCO2 | 24.7%
8 | Cc1ccc(CNC(=O)CSCc2cccc(F)c2)cc1 | -15.8%
9 | C=CCn1c(CNC(=O)c2cccs2)nnc1SCC(=O)c1ccc(Br)cc1 | -19.3%
10 | Cc1cccc(NC(=O)c2ccc(S(=O)(=O)N(C)C)cc2)n1 | -4.13%
11 | Cc1ccc2oc(-c3ccccc3C(=O)O)cc(=O)c2c1 | -2.39%
12 | CCCCN(C)C(=S)Nc1ccc2nc3n(c(=O)c2c1)CCCCC3 | -81.2%
13 | Cc1ccc(S(=O)(=O)CCC(=O)Oc2ccc3c(C)cc(=O)oc3c2)cc1 | 7.67%
14 | CCN(CC)c1ncnc2c1sc1nc(C)cc(C)c12 | -0.761%
15 | COc1cc(/C=C/C(=O)c2cccc([N+](=O)[O-])c2)cc(OC)c1OC | 3.28%
16 | O=C(Nc1cccc(Cl)c1)C1CCCN(S(=O)(=O)c2ccc(F)cc2)C1 (stereo not drawn) | -4.67%
17 | CCn1ccc(C(=O)Oc2ccc(Cl)cc2)n1 | 7.51%
18 | CC(NCc1ccc([N+](=O)[O-])cc1)C1COc2ccccc2O1.O=C(O)C(=O)O (stereo not drawn) | -66.2%
19 | Nc1nnc(Sc2ccc(Cl)cc2[N+](=O)[O-])s1 | 16.3%
20 | Cc1ccc(NC(=O)ON=C2CCCC2)cc1 | 1.04%
21 | CN1CCNC(=O)C1CC(=O)N1CC=C(c2ccc(F)cc2)CC1 (stereo not drawn) | -3.88%
22 | COC(=O)c1ccc(NC(=O)CSc2nnc(Cc3cccn3C)n2-c2ccc(F)cc2)cc1 | -12.7%

Row | Structure (SMILES) | hERG current change (%, negative = inhibition) at 10uM
23 | CCc1nn2cc(C(=O)c3ccccc3O)cnc2c1-c1ccc(F)cc1 | 8.2%
24 | CCOc1ccccc1N(CC(=O)NC1CCCCC1)C(=O)CCC(=O)Nc1cc(C)ccn1 | 3.35%
25 | Cc1cccc2sc(N(CCN3CCOCC3)C(=O)CCS(=O)(=O)c3ccccc3)nc12.Cl | -13.3%
26 | COC(=O)[C@H](Cc1ccccc1)NC(=O)NCCc1ccc(S(N)(=O)=O)cc1 | 14.4%
27 | CNC(=O)Oc1cccc(-c2cn3cc(Cl)ccc3n2)c1 | -17.5%
28 | Cc1ccc(C)c(C(=O)Nc2cc(C)nn2-c2nc(C)cc(C)n2)c1 | 3.98%
29 | CN(C)S(=O)(=O)N1CCc2ccccc21 | 15.8%
30 | COc1ccc(-c2nnc3c4ccccc4c(C)nn23)cc1S(=O)(=O)N1CCN(CCO)CC1 | -26.5%
31 | Nn1c(-c2ccccc2)cc(-c2ccccc2)cc1=O | -11.9%
32 | CC1=NN(C(=O)c2ccccc2Br)C(O)(c2cccnc2)C1 (stereo not drawn) | 12.9%
33 | CN(CC(=O)Nc1ccccc1C(=O)NC1CC1)Cc1cccs1 | -23.3%
34 | COc1ccccc1NS(=O)(=O)c1cc([N+](=O)[O-])ccc1N/N=C/c1sc(N2CCOCC2)nc1-c1ccccc1 | 29.3%
35 | O=C1Nc2ccccc2/C1=C/c1nc2ccccc2c(=O)n1-c1ccc(O)cc1 | 18.6%
36 | Cc1cc(C(=O)CSc2nnc(-c3cccs3)o2)c(C)n1-c1ccccc1 | -4.94%
37 | Cc1cc(C(=O)Nc2ccc(C#N)cc2)on1 | 10.7%
38 | COc1ccc(N(C(=O)c2ccncc2)S(=O)(=O)c2ccc3c4c(cccc24)C(=O)N3C)cc1 | 8.2%
39 | Clc1ccc(-c2nnc(N3CCOCC3)o2)cc1 | -7.07%
40 | CCn1c(=O)c(C(=O)Nc2ncccc2C)c(O)c2ccccc21 | 18.6%
41 | COc1ccc2c(c1)c(CCN1C(=O)c3ccccc3C1=O)cn2C(=O)c1ccco1 | 10.4%
42 | CCc1ccc(CNC(=O)C2CCN(c3nnc(C)c4c(C)n(-c5ccc(C)cc5)nc34)CC2)cc1 | -1.17%
43 | O=C(O)c1csc(Cc2ccccc2)n1 | 15.1%
44 | CC(=O)c1ccc(N2CCN(C(=O)Cn3cnc(S(=O)(=O)N4CCCCC4)c3)CC2)cc1 | 7.48%

Row | Structure (SMILES) | hERG current change (%, negative = inhibition) at 10uM
45 | CC1(C)OC(=O)C(=CNC(Cc2c[nH]c3ccccc23)C(=O)O)C(=O)O1 (stereo not drawn) | 11.9%
46 | CC(C)Oc1ccc(CSc2nnc3n(C)c(=O)c4c5c(sc4n23)CCCC5)cc1 | -16.6%
47 | COc1ccc(C[C@H]2COC(=O)[C@@H]2Cc2ccc(OC3OC(CO)C(O)C(O)C3O)c(OC)c2)cc1OC (stereo partly drawn) | 16.1%
48 | COc1cccc(C(=O)NCCS(=O)(=O)NCc2ccc3c(c2)OCO3)c1 | -35.3%
49 | O=C(Nc1ccc2c(c1)OCO2)Nc1ccc(Br)cn1 | 3.01%
50 | NC(=O)c1nn(CC(=O)Nc2cccc(S(=O)(=O)N3CCCC3)c2)c(=O)c2ccccc12 | 3.29%
51 | COc1ccc(OCC(=O)Nc2ccccc2C(=O)N2CCCC2)cc1 | -7.38%
52 | COc1ccc(S(=O)(=O)N2CCOCC2)cc1NC(=O)c1ccccc1-c1ccc(C(F)(F)F)cc1 | 2.01%
53 | C=C(C)C(=O)Nc1cccc(C2=NOC3(C2)C[C@@H](C(N)=O)N(C(=O)/C(C)=C/C)C3)c1 (stereo partly drawn) | 16.1%
54 | Cc1ccc(C)c(N2CCN(C(=O)CCC(=O)Nc3nnc(C(F)(F)F)s3)CC2)c1 | -2.9%
55 | COC(=O)/C(C#N)=C/c1ccc(C)o1 | 14.6%
56 | Cc1ccc(S(=O)(=O)NCC(=O)NCC2CCCCC2)cc1C | 1.86%
57 | O=C(/C=C/c1ccc(Br)o1)OCc1nc2ccsc2c(=O)[nH]1 | -2.96%
58 | CCOC(=O)[C@H]1[C@H]2COc3ccccc3[C@@H]2N2C(=O)CNC(=O)[C@@]12C | 22.4%
59 | COc1ccc(CCN(CC(=O)NC(C)(C)C)C(=O)Cn2nnc(-c3ccc(C)o3)n2)cc1OC | 9.43%
60 | CCCCn1c(N)c(N(CC(C)C)C(=O)c2oc3ccc(OCC)cc3c2C)c(=O)[nH]c1=O | -1.25%
61 | COc1cc(/C=C/c2cccc[n+]2C)ccc1OCC(=O)Nc1ccccc1.[I-] | 8.86%
62 | CCC(CC)C(=O)N1CC(=O)Nc2ccc(C)cc2C1c1ccccc1 (stereo not drawn) | -38.1%
63 | CCn1ncc(-c2csc(N)n2)c1C | 0.511%
64 | C=CCn1c(SCC(=O)N(CC)C2CCS(=O)(=O)C2)nc2cc(C(=O)O)ccc2c1=O (stereo not drawn) | 5.01%
65 | Nc1nc(CN2CCCCCC2)nc(Nc2ccc(F)cc2)n1 | -70.8%
66 | COc1ccc(Nc2nc3c(C)cccn3c(=O)c2C=NCc2ccccc2)cc1 | 10.7%

Row | Structure (SMILES) | hERG current change (%, negative = inhibition) at 10uM
67 | CC1Oc2ccccc2N(CC(=O)NCCN2CCOCC2)C1=O (stereo not drawn) | -0.941%
68 | CCOC(=O)c1c(N)sn(-c2ccccc2C)c1=S | 8.27%
69 | O=C(O)Cn1nc(C(F)(F)F)c2c1CCC2 | 20.4%
70 | Cn1c(=O)c2c(nc(N3CCC(C(N)=O)CC3)n2CCSc2nc3ccccc3s2)n(C)c1=O | -9.84%
71 | CSc1nnc2n(-c3ccccc3)c(=O)c3c4c(sc3n12)CCC4 | -22.9%
72 | CC1CCN(Cc2ccc(-c3nn[nH]n3)cc2)CC1 | 21.1%
73 | O=C(Nc1cccnc1)c1cccnc1 | 16%
74 | CC(C)Oc1ccccc1/C=N/n1nnnc1N | 8.96%
75 | COC(=O)CCCCC1SCC2NC(=O)NC21O (stereo not drawn) | 9.34%
76 | C[C@]12CCC3c4ccc(OCC(=O)O)cc4CCC3C1CCC2=O (stereo partly drawn) | 11.6%
77 | CCCCNC(=S)N/N=C/c1cc(C)ccc1C | -3.11%
78 | O=C(COC(=O)Cc1cn2ccsc2n1)Nc1nc2ccccc2s1 | 8.88%
79 | CC(C)(C)NS(=O)(=O)c1ccc(NC(=O)C2CC(=O)N(CCc3ccc(F)cc3)C2)cc1 (stereo not drawn) | -7.96%
80 | O=C(O)c1cc2nccc(-c3ccco3)n2n1 | -0.9%
81 | O=C1c2oc3ccc(Br)cc3c(=O)c2C(c2cccc(F)c2)N1CCO (stereo not drawn) | -1.34%
82 | CNc1nc(-c2ccc(Cl)cc2)cs1 | 1.67%
83 | CC(C)(C)c1ccc(C2C(C(=O)c3ccco3)=C(O)C(=O)N2CC2CCCO2)cc1 (stereo not drawn) | 4.74%
84 | OCCC1CN(Cc2cc(F)ccc2-n2cccn2)CCN1Cc1ccc(F)cc1 (stereo not drawn) | -62.5%
85 | CC(=O)c1cccc(NC(=O)c2ccc3c(=O)n4c(nc3c2)CCCCC4)c1 | -75.5%
86 | CC(=O)Nc1ccc(N2CCN(Cc3ccccc3)CC2)cc1 | -14.6%
87 | CC(=O)c1ccc(OCC(O)CN2CCN(Cc3ccc4c(c3)OCO4)CC2)cc1 (stereo not drawn) | -34.8%
